“Also recorded” adds a separate entry of the source. A number of entries come with more than one value. Only these are listed. No rule for the calls is given here. The source may hold further records. The records of an entry differ for a reason that is not stated; dose, time, organism, isomer or construct need not be as stated for each record. Marks in square brackets tell the records apart. The letters are not those of the source and start again with each entry. Marks such as (2×) stand for listed records that agree.

Experimental findings from PubChem BioAssay AID1259407 (Chemical Carcinogenesis Research Information System (CCRIS), 2018) are described below.

The data set relates to CCRIS mutagenicity, Ames/micronucleus/aberration tests. Description: CCRIS mutagenicity studies.
Setting [1] is: Test System: AMES SALMONELLA TYPHIMURIUM, Strain/Indicator: TA98, Metabolic Activation: NONE, Method: STANDARD PLATE.
The mark [2] stands for this setting: End Point: In vitro micronucleus, Test System: Human lymphocytes, Metabolic Activation: None.
The mark [3] stands for this setting: Test System: AMES SALMONELLA TYPHIMURIUM, Strain/Indicator: TA98, Metabolic Activation: RAT, LIVER, S-9, AROCLOR 1254, Method: STANDARD PLATE.
Setting [4] is: End Point: IN VITRO CHROMOSOMAL ABERRATIONS, Test System: CHL CELLS, Metabolic Activation: NONE.

With `O=[N+]([O-])c1cc2c3ccccc3ccc2c2ccccc12`, the mutagenic call (Test System: AMES SALMONELLA TYPHIMURIUM, Strain/Indicator: TA98, Metabolic Activation: NONE, Method: PREINCUBATION) is “active; positive [study A] and inactive; negative [study B] and active; positive [study C]”.
On to `Cc1c2ccncc2c(C)c2c1[nH]c1ccccc12`, for which, under setting [1], the mutagenic call is “active; positive [study A] and inactive; negative [study B]”.
As to `c1cnc2c(c1)ccc1c3cccnc3ccc12`, the mutagenic call (Test System: AMES SALMONELLA TYPHIMURIUM, Strain/Indicator: TA100, Metabolic Activation: BACULOVIRUS-TRANSFECTED INSECT CELL MICROSOMES, Method: PREINCUBATION) was “active; positive for strain expressing cyp1a2; also recorded: inactive; negative for strain expressing cyp2a6 or cyp2e1”.
On to `Cc1cc(O)c2c(c1)C(=O)c1cc(O)cc(O)c1C2=O`, for which, where the note is “Test System: AMES SALMONELLA TYPHIMURIUM, Strain/Indicator: TA102, Metabolic Activation: RAT, LIVER, S-9, AROCLOR 1254, Method: STANDARD PLATE”, the mutagenic call was “inactive; negative [study A] and active; positive [study B]”.
With `ClCc1ccc(Cl)cc1`, the mutagenic call (End Point: In vitro chromosomal aberrations, Test System: Chinese hamster lung (CHL/IU) cells, Metabolic Activation: None) is “active; positive (structural changes and ploidy). toxicity at 0.040 and 0.048 mg/ml; also recorded: active; positive (structural changes and ploidy). toxicity at 0.030 mg/ml. weak response; also recorded: active; positive (structural changes)”.
Turning to `[O]=[Cr](=[O])([OH])[O][Cr](=[O])(=[O])[OH]`, the mutagenic call reads like this: under setting [2], “active; positive. ameliorated by addition of curcumin; also recorded: inactive; negative”; (Test System: AMES SALMONELLA TYPHIMURIUM, Strain/Indicator: TA102, Metabolic Activation: NONE, Method: PREINCUBATION) “inactive; negative and active; positive”.
For the compound `ClC(Cl)Br`, the mutagenic call (End Point: IN VITRO CHROMOSOMAL ABERRATIONS, Test System: CHINESE HAMSTER LUNG FIBROBLAST CELLS (CHL/IU), Metabolic Activation: NONE) was “inactive; negative; also recorded: inactive; negative; authors describe as weakly positive”; the mutagenic call (End Point: IN VIVO MICRONUCLEUS, Test System: BONE MARROW POLYCHROMATIC ERYTHROCYTES, Species: MOUSE, Strain/Sex: DDY/MALE, Route: IP) was “inactive; negative; significant increase at highest dose; also recorded: inactive; negative”; the mutagenic call under setting [3] was “active; positive [study A] and inactive; negative [study B]”; the mutagenic call (Test System: AMES SALMONELLA TYPHIMURIUM, Strain/Indicator: TA100, Metabolic Activation: RAT, LIVER, S-9, AROCLOR 1254, Method: STANDARD PLATE) was “active; positive [study A] and inactive; negative [study B]”; the mutagenic call (Test System: AMES SALMONELLA TYPHIMURIUM, Strain/Indicator: TA1535, Metabolic Activation: NONE, Method: STANDARD PLATE) is “active; positive [study A] and inactive; negative [study B]”.
As to `[Cl][Ni][Cl]`, the mutagenic call under setting [2] is “inactive; negative; also recorded: active; positive. ameliorated by addition of curcumin”.
Turning to `Nc1ccc(Cl)c(N)c1`, the mutagenic call is “active; positive (structural changes) and inactive; negative” under setting [4]; “inactive; negative and active; positive” (End Point: IN VITRO CHROMOSOMAL ABERRATIONS, Test System: CHO-LB CELLS, Metabolic Activation: NONE); “inactive; negative and active; positive (2×)” under setting [1]; “active; positive and inactive; negative (2×)” (Test System: AMES SALMONELLA TYPHIMURIUM, Strain/Indicator: TA100, Metabolic Activation: HAMSTER, LIVER, S-9, Method: STANDARD PLATE); “inactive; negative and active; positive (2×)” (Test System: AMES SALMONELLA TYPHIMURIUM, Strain/Indicator: TA100, Metabolic Activation: MOUSE, LIVER, S-9, AROCLOR 1254, Method: STANDARD PLATE); “inactive; negative and active; positive (2×)” (Test System: AMES SALMONELLA TYPHIMURIUM, Strain/Indicator: TA100, Metabolic Activation: MOUSE, LIVER, S-9, Method: STANDARD PLATE). The mutagenic call was “inactive; negative and active; positive” (Test System: AMES SALMONELLA TYPHIMURIUM, Strain/Indicator: TA100, Metabolic Activation: RAT, LIVER, S-9, Method: STANDARD PLATE); “inactive; negative (2×) and active; positive” (Test System: AMES SALMONELLA TYPHIMURIUM, Strain/Indicator: TA1535, Metabolic Activation: RAT, LIVER, S-9, AROCLOR 1254, Method: STANDARD PLATE); “active; positive and inactive; negative” (Test System: AMES SALMONELLA TYPHIMURIUM, Strain/Indicator: TA1537, Metabolic Activation: MOUSE, LIVER, S-9, Method: STANDARD PLATE); “active; positive (2×) and inactive; negative” (Test System: AMES SALMONELLA TYPHIMURIUM, Strain/Indicator: TA1538, Metabolic Activation: NONE, Method: STANDARD PLATE).
Consider `Nc1ccc(Cl)cc1`, for which the mutagenic call (Test System: AMES SALMONELLA TYPHIMURIUM, Strain/Indicator: TA98, Metabolic Activation: HAMSTER, LIVER, S-9, AROCLOR 1254, Method: PREINCUBATION) is “active; positive and inactive; negative”; the mutagenic call (Test System: AMES SALMONELLA TYPHIMURIUM, Strain/Indicator: TA98, Metabolic Activation: RAT, LIVER, S-9, AROCLOR 1254, Method: PREINCUBATION) is “active; positive and inactive; negative”; the mutagenic call under setting [3] is “inactive; negative [study A] and active; positive [study B] and active; positive [study C]”.
For `CCOC(=O)CBr`, the mutagenic call under setting [4] was “inactive; negative; test material toxic at 0.0004 mg/ml; metaphase cell division not obse; also recorded: inactive; negative; authors report equivocal results for structural changes at highest dos”.
With `Nc1ccc2ccccc2c1N=Nc1ccccc1`, under “Test System: MOUSE LYMPHOMA, Strain/Indicator: L5178Y (TK+/TK-), Metabolic Activation: RAT, LIVER, S-9, AROCLOR 1254, Method: SUSPENSION/PLATE”, the mutagenic call was “inactive; negative [study A]; also recorded: inactive; negative. reevaluation of results: negative [study B]”.
For the compound `ClCc1ccccc1`, the mutagenic call under setting [4] was “active; positive (structural changes); also recorded: inactive; negative; authors report equivocal results for ploidy changes at 0.05 mg/ml; also recorded: inactive; negative; authors report equivocal results for structural changes at 0.05 mg/ml”; the mutagenic call (Test System: AMES SALMONELLA TYPHIMURIUM, Strain/Indicator: TA100, Metabolic Activation: NONE, Method: PREINCUBATION) is “inactive; negative [study A] and active; positive [study A] and inactive; negative [study B]”; the mutagenic call (Test System: AMES SALMONELLA TYPHIMURIUM, Strain/Indicator: TA100, Metabolic Activation: RAT LIVER S-9, PHENOBARBITAL AND BETA-NAPHTHOFLAVONE, Method: PREINCUBATION) was “inactive; negative and active; positive”; the mutagenic call (Test System: E.COLI, Strain/Indicator: WP2UVRA, Metabolic Activation: NONE, Method: PREINCUBATION) is “inactive; negative and active; positive”; the mutagenic call (Test System: E.COLI, Strain/Indicator: WP2UVRA, Metabolic Activation: RAT LIVER S-9, PHENOBARBITAL AND BETA-NAPHTHOFLAVONE, Method: PREINCUBATION) was “inactive; negative and active; positive”.
As to `ONc1ncnc2nc[nH]c12`, the mutagenic call (Test System: AMES SALMONELLA TYPHIMURIUM, Strain/Indicator: TA100, Metabolic Activation: NONE, Method: STANDARD PLATE) was “inactive; negative [study A] and active; positive [study B] and active; positive [study C]”.
`Cc1ccc(N)cc1N`: where the note is “End Point: In vivo micronucleus, Test System: Micronucleated hepatocytes, Species: Rat, Strain/Sex: F344/Male, Route: Oral”, the mutagenic call is “inactive; negative and active; positive (p<0.05)”.
Regarding `COc1ccc(NC(C)=O)cc1N`, the mutagenic call under setting [4] is “active; positive (structural changes); also recorded: inactive; negative; authors report equivocal results for structural changes at 1.0 and 2.0; also recorded: inactive; negative”.
For the compound `N[C@@H](CS)C(=O)O`, the mutagenic call (Test System: CHINESE HAMSTER V-79, Strain/Indicator: V-79/6-THIOGUANINE, Metabolic Activation: RAT, KIDNEY, S-9, Method: STANDARD PLATE) is “inactive; negative and active; positive”.
